Source: PMC12820563
Some of the results follow. The list includes weakly bound sequences.

Molecular target: T1, MBP-FoxP3dN (UniProt Q99JB6)
T1 sequence: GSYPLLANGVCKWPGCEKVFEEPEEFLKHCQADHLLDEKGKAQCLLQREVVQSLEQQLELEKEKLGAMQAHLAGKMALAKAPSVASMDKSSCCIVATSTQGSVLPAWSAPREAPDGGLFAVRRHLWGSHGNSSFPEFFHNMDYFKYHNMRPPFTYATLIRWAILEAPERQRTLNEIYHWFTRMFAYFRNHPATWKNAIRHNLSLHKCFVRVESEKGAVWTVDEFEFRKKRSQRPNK
Assay: PD-seq (MBP pull-down with sequencing)
Conditions: 20 mM Tris-HCl pH 7.5, 100 mM NaCl, 1.5 mM MgCl2, 0.4 uM protein, 0.1 uM dsDNA library, 30 min, room temperature, amylose pull-down; high values mean tight binding; double strand, one strand shown

Row | Sequence | binding signal (RPM ratio (pull-down/input))
1 | GATGATTGTTCTCCCAGCTGATGAATTCCACTGCTCGAGTAAACAAATTTTCCTAATCTTTCTGTTCAAGCGCCATCTAC | 0.312
2 | GATGATTGTTCTCCCAGCTGATGAATTGCCCGAGTCGAGTAAACAAATTTTCCTAATCTTTCTGTTCAAGCGCCATCTAC | 0.303
3 | GATGATTGTTCTCCCAGCTGATGAATTGAACGTCTCGAGTAAACAAATTTTCCTAATCTTTCTGTTCAAGCGCCATCTAC | 0.388
4 | GATGATTGTTCTCCCAGCTGATGAATTTTATGGATCGAGTAAACAAATTTTCCTAATCTTTCTGTTCAAGCGCCATCTAC | 0.6
5 | GATGATTGTTCTCCCAGCTGATGAATTAGCTGTGTCGAGTAAACAAATTTTCCTAATCTTTCTGTTCAAGCGCCATCTAC | 2.61
6 | GATGATTGTTCTCCCAGCTGATGAATTATGGTCATCGAGTAAACAAATTTTCCTAATCTTTCTGTTCAAGCGCCATCTAC | 0.779
7 | GATGATTGTTCTCCCAGCTGATGAATTGACCAACTCGAGTAAACAAATTTTCCTAATCTTTCTGTTCAAGCGCCATCTAC | 0.351
8 | GATGATTGTTCTCCCAGCTGATGAATTGCACCAGTCGAGTAAACAAATTTTCCTAATCTTTCTGTTCAAGCGCCATCTAC | 0.607
9 | GATGATTGTTCTCCCAGCTGATGAATTCGATATCTCGAGTAAACAAATTTTCCTAATCTTTCTGTTCAAGCGCCATCTAC | 1.35
10 | GATGATTGTTCTCCCAGCTGATGAATTAGAACGCTCGAGTAAACAAATTTTCCTAATCTTTCTGTTCAAGCGCCATCTAC | 0.346
11 | GATGATTGTTCTCCCAGCTGATGAATTGGAAAAGTCGAGTAAACAAATTTTCCTAATCTTTCTGTTCAAGCGCCATCTAC | 0.135
12 | GATGATTGTTCTCCCAGCTGATGAATTCACCATCTCGAGTAAACAAATTTTCCTAATCTTTCTGTTCAAGCGCCATCTAC | 0.399
13 | GATGATTGTTCTCCCAGCTGATGAATTCGTGGCGTCGAGTAAACAAATTTTCCTAATCTTTCTGTTCAAGCGCCATCTAC | 1.02
14 | GATGATTGTTCTCCCAGCTGATGAATTAGGTTGCTCGAGTAAACAAATTTTCCTAATCTTTCTGTTCAAGCGCCATCTAC | 1.25
15 | GATGATTGTTCTCCCAGCTGATGAATTGATCTATTCGAGTAAACAAATTTTCCTAATCTTTCTGTTCAAGCGCCATCTAC | 0.433
16 | GATGATTGTTCTCCCAGCTGATGAATTACACCTCTCGAGTAAACAAATTTTCCTAATCTTTCTGTTCAAGCGCCATCTAC | 0.705

Row | Sequence | binding signal (RPM ratio (pull-down/input))
17 | GATGATTGTTCTCCCAGCTGATGAATTCCGGCTATCGAGTAAACAAATTTTCCTAATCTTTCTGTTCAAGCGCCATCTAC | 0.522
18 | GATGATTGTTCTCCCAGCTGATGAATTAAACTAATCGAGTAAACAAATTTTCCTAATCTTTCTGTTCAAGCGCCATCTAC | 0.336
19 | GATGATTGTTCTCCCAGCTGATGAATTACTCCAATCGAGTAAACAAATTTTCCTAATCTTTCTGTTCAAGCGCCATCTAC | 0.305
20 | GATGATTGTTCTCCCAGCTGATGAATTAGAAGACTCGAGTAAACAAATTTTCCTAATCTTTCTGTTCAAGCGCCATCTAC | 0.289
21 | GATGATTGTTCTCCCAGCTGATGAATTCATGCCATCGAGTAAACAAATTTTCCTAATCTTTCTGTTCAAGCGCCATCTAC | 1.88
22 | GATGATTGTTCTCCCAGCTGATGAATTTAACCGGTCGAGTAAACAAATTTTCCTAATCTTTCTGTTCAAGCGCCATCTAC | 0.193
23 | GATGATTGTTCTCCCAGCTGATGAATTACGTAGATCGAGTAAACAAATTTTCCTAATCTTTCTGTTCAAGCGCCATCTAC | 0.417
24 | GATGATTGTTCTCCCAGCTGATGAATTGCCCCATTCGAGTAAACAAATTTTCCTAATCTTTCTGTTCAAGCGCCATCTAC | 0.487
25 | GATGATTGTTCTCCCAGCTGATGAATTGGGCTAGTCGAGTAAACAAATTTTCCTAATCTTTCTGTTCAAGCGCCATCTAC | 0.755
26 | GATGATTGTTCTCCCAGCTGATGAATTGGGAGGGTCGAGTAAACAAATTTTCCTAATCTTTCTGTTCAAGCGCCATCTAC | 0.3
27 | GATGATTGTTCTCCCAGCTGATGAATTATCTCGATCGAGTAAACAAATTTTCCTAATCTTTCTGTTCAAGCGCCATCTAC | 0.258
28 | GATGATTGTTCTCCCAGCTGATGAATTTGGGGCATCGAGTAAACAAATTTTCCTAATCTTTCTGTTCAAGCGCCATCTAC | 0.914
29 | GATGATTGTTCTCCCAGCTGATGAATTATTTTATTCGAGTAAACAAATTTTCCTAATCTTTCTGTTCAAGCGCCATCTAC | 0.489
30 | GATGATTGTTCTCCCAGCTGATGAATTTCGTACATCGAGTAAACAAATTTTCCTAATCTTTCTGTTCAAGCGCCATCTAC | 0.613
31 | GATGATTGTTCTCCCAGCTGATGAATTCCGACAATCGAGTAAACAAATTTTCCTAATCTTTCTGTTCAAGCGCCATCTAC | 0.345
